Results taken from the supplement of paper PMC11417369.
Some of the results follow.

What follows are sequences tested on PfSIP2 AP2 domain 1 (GST-tagged) (assay: gcPBM binding intensity (ln(normalized median fluorescence intensity)); higher = stronger DNA binding).
Method in brief: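 Using an Agilent 4 × 180k array, primer-extended double-stranded 36-bp intergenic genomic probes and negative controls were exposed for 1 h to GST-fused P. falciparum DNA-binding domains expressed in E. coli. Binding was carried out in 1× PBS with 1% milk, 0.2 mg/ml BSA, 0.5% salmon testes DNA and 0.03% Triton X-100, and protein was detected with Alexa488 anti-GST antibody and a 488 nm scan. Binding intensity is the highest Masliner-normalised natural-log median intensity across replicate spots of either probe orientation.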

| Sequence | gcPBM binding intensity (ln) |
| --- | --- |
| AATACATGAACTTAAAGTACTAAAAAAAAAATAATA [XGTACX_site1956] | 6.92 |
| CATATAAGACAAAAGGTGCAATTTTAATGCTTTTAT [GTGCAC_site9432] | 9.98 |
| AACCCTTTTGATTTTTCTTTTTTTTTTTTTTTAAAT [CACACA_negctrl_site1667] | 6.65 |
| AGAAGGATATTATGAAGTACACATATTGTATATGGT [XGTACX_site7503] | 6.79 |
| ACAGTTTGTCTGAGTAGTACATAAATACTTGAAAGG [XGTACX_site7792] | 7.22 |
| TAGTAAAATGGAACACGTACATATATCTATGTATAA [XGTACX_site6103] | 6.79 |
| CCATATATAATGACATGTACTCAAAAAAAAAAAAAA [XGTACX_site685] | 7.32 |
| TTTTTAAAAAAAAATAGAGAGTCAAAGTATGTGGCG [CACACA_negctrl_site194] | 7.33 |
| ATACATATATATATATGTACATATATTTATATTTAT [XGTACX_site3155] | 7.36 |
| TTTCTCTTTTTTTGGGGTACAACCAATCCTATAATA [XGTACX_site297] | 7.08 |
| TAATTCAAACGTGTATGTATATTACTCGAAGAAATA [CACACA_negctrl_site1779] | 6.86 |
| AAGTTCAAAATAAATGGTACAGAAGTATATATATCA [XGTACX_site174] | 6.92 |
| TAAAAAAAGAGATATTGTACACAAAAAAATTTTACT [XGTACX_site1342] | 7.05 |
| TAGAAAAAAAAATACATACACACAATATATTTATTT [CACACA_site3123] | 6.74 |
| AAAATCTAGGTATTTATACACACTAATATAATATAC [CACACA_site8108] | 7 |
| TATATATTTGTGAAAATATTAAAATAAATAAATAAA [CACACA_negctrl_site295] | 7.05 |
| ATATATAATATAATATGTACATATAATCAATCCTGT [XGTACX_site8694] | 7 |
| ATTTAGTATTCGAAACGTACACATATATATATATAT [XGTACX_site3910] | 9.5 |
| ATATTTTTTTTCTTCACACACATGAGTTATAAATAA [CACACA_site7498] | 7.43 |
| AATGAAACAATACCCAGTAAAAAAAAAAAATAAATA [TGCATGCA_negctrl_site205] | 6.69 |
| TGTAATCTGGAGAAGAGTACACAGTATCTGGTAGCT [XGTACX_site4935] | 6.95 |
| GGACGTATTAAAAGGCGTACACTAAATATTTTATGT [XGTACX_site146] | 7.05 |

| Sequence | gcPBM binding intensity (ln) |
| --- | --- |
| TAATATTTATATAATTGTACTTTGTTTGTAAATCCA [XGTACX_site7292] | 6.72 |
| ATTATAATTTTGTAAAGTACATATTATTATATATTA [XGTACX_site7191] | 6.81 |
| TATTTATATAATCCTATAATATTACTACTATCTTTA [GTGCAC_negctrl_site342] | 6.84 |
| AAGATAATTACGCACACACACACACGCCCACAACTA [CACACA_site7255] | 7.34 |
| AAGGTAAAATATAAGTGTACTTTTTCTTAATCTTCG [XGTACX_site514] | 7.07 |
| ATACACAAATGCATACGTACATATATATATATATAT [XGTACX_site3504] | 9.8 |
| CATATAAGAATCTTCTGTACTTATAAGAAAAGACAT [XGTACX_site8135] | 6.97 |
| TAAAACAAAATAACATGTACAAAAAAAAAAAAAAAA [XGTACX_site2915] | 7.1 |
| AAAAAAAAAAAAACAACACACAATGTTTTATTTTAC [CACACA_site1613] | 7.09 |
| ATGTAATATGTTCATGCATGTAAAATTACATTTAGA [TGCATGCA_site852] | 6.83 |
| ATATCTATAATAAACACACAAATAGATATAACATAT [CACACA_site7702] | 7.07 |
| AAAAAAAAATTAAAAACACACATATATATATATATA [CACACA_site1580] | 9.69 |
| TATAAATAAAGACTTTTTTCTAACTTTTTTTTGTAT [CACACA_negctrl_site1015] | 6.6 |
| TATATATATATATATGTGCACATTTATTGCCTTTGC | 9.4 |
| AAAATTTAATATGAATGTACATAAAAAAAAAAAAAA [XGTACX_site6719] | 7.03 |
| TAAGTATATTTCTGCACACAAAAAAAAAAACCAAAA [CACACA_site4056] | 7.18 |
| ACTCTCTTATATTAAACACACATATATATATGTATA [CACACA_site2703] | 7.52 |
| TCAAACAAAAAAGAAACACACACTAATTAAATTTTC [CACACA_site1101] | 6.75 |
| AATAATTTGAAGGTGATAGTATTACATGGGAAATCA [CACACA_negctrl_site301] | 6.91 |
| AAATCGAACAAATTATGTACTAAAAAAAAAATTTAT [XGTACX_site6399] | 6.89 |
| GTACATATAAATATTACACACATTTTCATTTTTAAC [CACACA_site1986] | 7.16 |
| TTATATGCATCCAAAAAGGAATGTTTTTAGAGAATC [CACACA_negctrl_site1062] | 6.8 |

| Sequence | gcPBM binding intensity (ln) |
| --- | --- |
| ATCTTTCGAACATGTACACACAGAAAAAAAAAAAAA [CACACA_site5393] | 7.6 |
| GTGTAGGCAAAAAGTTGTACGCCTAAAATCTATATA [XGTACX_site8912] | 6.96 |
| TGTATAGGTACAATAATTATAGAGTAATTGACATTA [GTGCAC_negctrl_site183] | 6.88 |
| TAAAAAGTATATGGTCGTACACTTTTGATTAATACA [XGTACX_site7804] | 6.87 |
| TTATTTTTTTCAACAAGTACTAATACAAAATAAAAC [XGTACX_site6460] | 7.37 |
| GATTAAATCGATAATACACACTAAATGTAAAACATT [CACACA_site4248] | 6.82 |
| TTGTATTATTAAATTATAAAACCTATAATTATGGAT [GTGCAC_negctrl_site340] | 6.72 |
| TGATAACTAAATACATGTACAAATTAAAAAGAAAAA [XGTACX_site3080] | 7.01 |
| TAATGATTATATGACTGTACATTTGTAGGTATAATT [XGTACX_site3373] | 7.14 |
| CATATTTATAAATATAAACACACAACATTATATGCA [CACACA_site9065] | 7.04 |
| GCAAAATAAAGAAGCACACAAAAATGAAATATATAT [CACACA_site3651] | 7.07 |
| TATACGTAATAATATGCACACAAATAAACTTTATAA [CACACA_site9166] | 8.88 |
| AAAAAAAATACATACATACACACATATATATATATA [CACACA_site912] | 9.31 |
| TCTTGGTATATTCAATATATGATTTATATAATTCAA [CACACA_negctrl_site818] | 6.99 |
| ACTAGTAAATTTATATGTACATATATATATATATAG [XGTACX_site2502] | 7.64 |
| ATTTATATATATCATACACACTAATATGTATATTAT [CACACA_site5816] | 7.04 |
| GAATGAATGATAAATTTTTTTTTCTTTTTTTTTTTG [CACACA_negctrl_site333] | 6.54 |
| TGTTATATATATACAAACATACACATTTATAAACAA [TGCATGCA_negctrl_site235] | 7.12 |
| AAAAAAAGAAAAAAAACACACACAAATATAAATAAA [CACACA_site8309] | 6.71 |
| TTATGATCATTTATATGTACACATAATTTTTGTGCT [XGTACX_site5568] | 7.5 |
| TATTAATTTCTTTTTTCTCATCACTTTCAAAATGAA [CACACA_negctrl_site1055] | 6.91 |
| GTTCAAATTCTTATACCTTTTTATTGAGCCATAATA [CACACA_negctrl_site210] | 7.12 |

| Sequence | gcPBM binding intensity (ln) |
| --- | --- |
| AGCATATATTAAACATGTACATAAATATATTATATA [XGTACX_site1451] | 6.98 |
| ATAAAATGGGCAAACACACACAAAAAAAAGATATAT [CACACA_site1648] | 7.07 |
| AGGGGCGAAACAAAGGTGCTTTTATAAAATATGTAA | 8.36 |
| CCCAATAATTAAACAACACACATATATATCTGTAAT [CACACA_site5667] | 7.14 |
| AGAAATCATCTGAATTGTACTAACAATTTTTTTTAA [XGTACX_site6191] | 6.79 |
| AGAGAAGAAAACAAAACACACACATATATCTTAATA [CACACA_site8699] | 6.85 |
| AACTTAAAAAAAAAAAAAAAAAAAAAAAAAAAAAAA [GTGCAC_negctrl_site34] | 6.94 |
| CTTAAATCTACTATTTGTACATATTTTATTATTAAA [XGTACX_site6151] | 7.19 |
| TATTATAATAAAATATGTACACACATACACACATAT [XGTACX_site2360] | 7.35 |
| TAGATAAAATTAAAATGTACAAACCTTTTCCCTTAT [XGTACX_site1136] | 6.6 |
| ATATATATATATATATGTACTTATTTATTTTATATA [XGTACX_site8810] | 9.97 |
| TTTTTTTTATCAAATTGTACATATACAAAGGTGATC [XGTACX_site8054] | 6.71 |
| ATTTTATTTTTTAATAGTACTCATTTTTTATGTGAA [XGTACX_site5494] | 6.98 |
| TATATATATATAAAGGTGCATATCTTTACGTATGTC [GTGCAC_site9665] | 10.1 |
| ATATATATATATGATACATGCATATATTTTTTCTTC [TGCATGCA_site216] | 9.25 |
| AACACCAAACAAAGGTGTACATATAGGAAAAAATCT [XGTACX_site1006] | 7.02 |
| TACACGCAGAAACACACACACACACCCATATATATA [CACACA_site637] | 7.5 |
| TATCACATATTATGATGTACAAAGATTCTGACTAAT [XGTACX_site2770] | 6.82 |
| AGAGGGGAAAACATGATGCACTAGTATAACCAAGAA | 9.55 |
| TTTCCTTATAAAAATACACACAAACTTTCATTAAAA [CACACA_site5953] | 7.02 |
| TCATATTATTATATATGTACATACCAATATATTATA [XGTACX_site2988] | 6.97 |
| TAGATATGTCTAAAAAGTACTTTCTATAACAATTCT [XGTACX_site6678] | 6.9 |
